Measurements taken from the supplement of paper PMC3334620.
The full ranking holds about 33,000 sequences; the median of “E-score (-0.5 to 0.5)” is about -0.016, and the highest 2% start at about 0.32. The list shows a part of the results.

target: T1, Stp1 (UniProt B3LFK1); assay: PBM E-score (8-mer binding enrichment) (E-score (-0.5 to 0.5)); higher = stronger / more preferred TF binding; most listed sequences are background and not binding sites; conditions: protein concentration: 200 nM; construct: GST-full length
T1 sequence: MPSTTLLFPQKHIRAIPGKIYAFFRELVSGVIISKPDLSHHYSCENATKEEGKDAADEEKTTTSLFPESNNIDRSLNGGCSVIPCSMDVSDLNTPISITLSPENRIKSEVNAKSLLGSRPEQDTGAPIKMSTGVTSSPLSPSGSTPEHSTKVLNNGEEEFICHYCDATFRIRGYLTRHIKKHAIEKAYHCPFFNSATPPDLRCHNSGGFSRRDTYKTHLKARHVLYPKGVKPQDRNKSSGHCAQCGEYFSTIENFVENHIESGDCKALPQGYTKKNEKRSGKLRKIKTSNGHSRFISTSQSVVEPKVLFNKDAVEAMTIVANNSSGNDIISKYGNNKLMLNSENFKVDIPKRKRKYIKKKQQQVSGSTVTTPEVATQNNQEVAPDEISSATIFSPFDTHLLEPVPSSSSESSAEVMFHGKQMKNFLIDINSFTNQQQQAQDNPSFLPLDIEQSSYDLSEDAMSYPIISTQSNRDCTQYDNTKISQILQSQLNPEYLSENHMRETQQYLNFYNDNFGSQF
Protocol: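 Universal 'all 10-mer' protein binding microarrays (Agilent AMADID 015681) probed with GST-tagged S. cerevisiae TFs (full-length or DBD) made by in vitro transcription/translation (PURExpress), about 100-200 nM. Bound TF was detected with fluorescent anti-GST. Each ungapped 8-mer (which stands for itself and its reverse complement) is scored by the PBM enrichment score (E-score), a modified Wilcoxon-Mann-Whitney statistic from -0.5 to +0.5, computed with the Universal PBM Analysis Suite. Scale: above 0.35 generally sequence-specific binding.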

| Sequence | PBM E-score |
| --- | --- |
| ACCACCCA | -0.0526 |
| AGACTTAC | -0.25 |
| TCAAGGAA | 0.0129 |
| TCCCGAAA | -0.0842 |
| AATCGCCA | 0.213 |
| AGTGGTAT | -0.0308 |
| ACAAGTAT | -0.00903 |
| AAGAGTGC | -0.0482 |
| GTTCTGGA | -0.0238 |
| ACCTTTCG | -0.121 |
| ATTATTTG | 0.147 |
| CTCGTCCC | -0.0621 |
| CTCCAGCC | -0.0414 |
| ATCACCCG | -0.202 |
| CGATTGGC | 0.158 |
| CTTCCCAA | -0.112 |
| GTGGGGGA | -0.299 |
| GATATAAC | 0.0865 |
| GGAGTCTA | -0.368 |
| ATCCTTAA | -0.0371 |
| CCGAGGTC | -0.241 |
| AAGTAAGC | 0.0305 |
| TCTCCTCA | -0.138 |
| TACGAGTA | -0.0123 |
| ACCCACGA | -0.0625 |

| Sequence | PBM E-score |
| --- | --- |
| GAGTCCGA | 0.0238 |
| GCCTAAGA | -0.138 |
| GTGACTAA | 0.0535 |
| GGCGAGTA | 0.0446 |
| GAGGCTGA | -0.0986 |
| ATATCTCA | 0.117 |
| CTGTTAGC | -0.126 |
| GCGGGAGA | -0.27 |
| GCAATTGA | 0.217 |
| AATGAACT | 0.114 |
| TCATCCAA | -0.00732 |
| GCCTGCGA | -0.202 |
| CGTGTTTA | 0.114 |
| CGCGGACA | 0.17 |
| AACGGGGA | -0.0385 |
| GCCAAGGA | -0.16 |
| CGCTTTAC | -0.0161 |
| CAAAACGC | 0.322 |
| CGCGCGCC | 0.403 |
| AAGATGAC | -0.101 |
| CAATCACC | -0.0123 |
| GGAAGTGA | -0.0634 |
| AGATTGAG | 0.0447 |
| CAGTATAG | 0.195 |
| AAAGATGA | 0.17 |

| Sequence | PBM E-score |
| --- | --- |
| CACACGGC | 0.471 |
| ACTAAATC | 0.238 |
| CCGCAGAC | 0.121 |
| CGTTTTTC | 0.0985 |
| GACACCGC | -0.134 |
| ATTAAGGG | -0.294 |
| CCAAGGCG | 0.341 |
| ATAAGTAC | 0.0441 |
| ACAGAGGC | -0.0508 |
| AATTAGGA | 0.072 |
| AATTTTTA | 0.0472 |
| AACACCCG | 0.151 |
| ACACCGCA | 0.0297 |
| CCCGCAAG | -0.255 |
| GAGTCAAC | -0.175 |
| AAGGATAT | 0.144 |
| TGAGTGCA | -0.0619 |
| AAGAAGGA | -0.227 |
| ATGCGCAC | -0.00186 |
| AGAACGAT | 0.0102 |
| ACTAGTAG | 0.0974 |
| CTTCGACA | -0.0844 |
| ACTCCAGA | -0.0698 |
| GCCCGGGC | 0.0954 |
| GCGTGTCA | 0.12 |

| Sequence | PBM E-score |
| --- | --- |
| CTTGAAAC | 0.17 |
| GACACCTC | -0.00334 |
| CACTCTTA | 0.0762 |
| GAGAGTGA | 0.0241 |
| AAATGTCA | 0.00198 |
| ACCCGTCT | -0.141 |
| TCCTCACA | 0.069 |
| TACTAAAA | 0.217 |
| ACGGAGAG | -0.0709 |
| ACACTCTA | 0.178 |
| CATCCTAG | -0.00726 |
| AGGAAGAG | -0.237 |
| ATCGTACA | 0.0995 |
| AGGTCTCA | -0.131 |
| CGGAATAC | 0.00552 |
| CATCCATG | -0.0587 |
| GACCGGAA | -0.033 |
| GATCGCCA | -0.0854 |
| TGTCGGAA | -0.113 |
| AGCCCGCG | -0.101 |
| AATGTATG | 0.014 |
| ATTTTTTA | 0.287 |
| GGGAAACA | 0.043 |
| CCGAACGA | -0.0055 |
| CCAGCCCA | -0.327 |

| Sequence | PBM E-score |
| --- | --- |
| CCTGAGGC | 0.0583 |
| AAAGCGTG | -0.00087 |
| AGGGCGAA | -0.0283 |
| CAAACGAC | 0.0657 |
| CTGGTAGA | -0.0578 |
| CGTGCTAC | 0.058 |
| ACCTGGTC | -0.303 |
| CAAGTAAA | 0.112 |
| CGTTGTTC | 0.106 |
| TCTCGCCA | -0.153 |
| CCACACGC | 0.158 |
| GACCACGC | -0.192 |
| ATCTGCCG | 0.155 |
| CGGGGTAA | 0.00957 |
| CCATCCAA | 0.0222 |
| CATTCGGA | 0.135 |
| ACAATTTC | 0.00886 |
| ACCCCCAG | -0.405 |
| GTGAATTA | 0.206 |
| GACCAGTA | -0.284 |
| CCAACTTC | -0.101 |
| ATATGGTG | 0.0916 |
| GCTTCCGA | -0.0252 |
| CTCTGTAA | -0.0941 |
| ACAGGCCT | -0.248 |

| Sequence | PBM E-score |
| --- | --- |
| CGTAACAC | 0.0618 |
| AGCGATAA | 0.0662 |
| CGTTGAAC | 0.105 |
| GGGTGGTA | -0.125 |
| ACAGAGGT | -0.105 |
| CTTAGAGC | 0.0308 |
| AGCTTCCA | -0.0479 |
| GAGCAATC | -0.0394 |
| GGAGGCCA | -0.194 |
| ACCTTCTA | -0.0466 |
| GCCCCATA | -0.0843 |
| AGAGGCAA | 0.0357 |
| AGAGGCGA | 0.135 |
| CAACGGTC | -0.0394 |
| ACACGTAC | -0.0398 |
| ACACCGCT | -0.368 |
| AGCGGGGA | -0.147 |
| CGGGTTTA | 0.104 |
| ATCTCGAG | -0.0297 |
| GGGCTAAA | -0.0695 |
| CATTCTAG | -0.0663 |
| CAGAAAAA | 0.0537 |
| CACCTACC | -0.148 |
| CCAACAGA | -0.0733 |
| GCTAGGAA | -0.223 |

| Sequence | PBM E-score |
| --- | --- |
| AGTGCTCG | -0.162 |
| CCTACGCG | -0.103 |
| CCTATGCA | -0.0155 |
| AAATTTCT | -0.0455 |
| CCTGGCCG | -0.105 |
| GGACCTAC | -0.148 |
| CACAGAGG | -0.136 |
| ACACTTCG | 0.0446 |
| ACGACCAA | -0.0741 |
| CTCGTGAC | 0.00515 |
| AATTTAAA | 0.117 |
| GCTTGGAA | -0.00205 |
| AGGTAATG | -0.0559 |
| AGGGTAAC | -0.165 |
| CGATGAGA | -0.0578 |
| ATTATCAG | 0.141 |
| AGATGTAC | -0.171 |
| ATTAAATA | 0.221 |
| ATACAGGC | -0.0683 |
| CCTGCAAC | -0.0662 |
| GCAGATGA | -0.166 |
| CGGCGCTA | 0.453 |
